# Residue numbers refer to the chain shown, from its start. The list shows a part of the results.
# T1: RBFOX1 RRM (Homo sapiens, UniProt Q9NWB1 109-208)
# T1 sequence: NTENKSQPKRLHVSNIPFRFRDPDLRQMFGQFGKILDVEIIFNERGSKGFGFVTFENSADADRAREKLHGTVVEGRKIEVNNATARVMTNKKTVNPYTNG
# B1: UUAAAUU (DNA:RNA)
# RNA: GGGAGACCGGAAUUCAGAUUGUCCUUAAAUUUUAAAUCCCGUCGUAGCCACCA
# DNA 1: CAATCTGAATTCCGGTCTCCC
# DNA 2: TGGTGGCTACGACGGGATT
# B2: UACGAUU (DNA:RNA)
# RNA: B1 RNA with U26A, A27C, A28G
# DNA 1: CAATCTGAATTCCGGTCTCCC
# DNA 2: TGGTGGCTACGACGGGATT
# B3: CAUCCCA (DNA:RNA)
# RNA: GGGAGACCGGAAUUCAGAUUGUCCCAUCCCAUUAAAUCCCGUCGUAGCCACCA
# DNA 1: CAATCTGAATTCCGGTCTCCC
# DNA 2: TGGTGGCTACGACGGGATT
# B4: CGGAUUA (DNA:RNA)
# RNA: B3 RNA with A26G, U27G, C28A, C29U, C30U
# DNA 1: CAATCTGAATTCCGGTCTCCC
# DNA 2: TGGTGGCTACGACGGGATT
# B5: GCGAGCC (DNA:RNA)
# RNA: B3 RNA with C25G, A26C, U27G, C28A, C29G, A31C
# DNA 1: CAATCTGAATTCCGGTCTCCC
# DNA 2: TGGTGGCTACGACGGGATT
# B6: AAUACUG (DNA:RNA)
# RNA: B3 RNA with C25A, C28A, C30U, A31G
# DNA 1: CAATCTGAATTCCGGTCTCCC
# DNA 2: TGGTGGCTACGACGGGATT
# B7: UAUUAAA (DNA:RNA)
# RNA: B3 RNA with C25U, C28U, C29A, C30A
# DNA 1: CAATCTGAATTCCGGTCTCCC
# DNA 2: TGGTGGCTACGACGGGATT
# B8: GAGGUUG (DNA:RNA)
# RNA: B3 RNA with C25G, U27G, C28G, C29U, C30U, A31G
# DNA 1: CAATCTGAATTCCGGTCTCCC
# DNA 2: TGGTGGCTACGACGGGATT
# B9: CUCUGGG (DNA:RNA)
# RNA: B3 RNA with A26U, U27C, C28U, C29G, C30G, A31G
# DNA 1: CAATCTGAATTCCGGTCTCCC
# DNA 2: TGGTGGCTACGACGGGATT
# B10: ACUUACU (DNA:RNA)
# RNA: B3 RNA with C25A, A26C, C28U, C29A, A31U
# DNA 1: CAATCTGAATTCCGGTCTCCC
# DNA 2: TGGTGGCTACGACGGGATT
# B11: UAUACAG (DNA:RNA)
# RNA: B3 RNA with C25U, C28A, C30A, A31G
# DNA 1: CAATCTGAATTCCGGTCTCCC
# DNA 2: TGGTGGCTACGACGGGATT
# B12: GCCAGAG (DNA:RNA)
# RNA: B1 RNA with U25G, U26C, A27C, A29G, U30A, U31G
# DNA 1: CAATCTGAATTCCGGTCTCCC
# DNA 2: TGGTGGCTACGACGGGATT
# B13: GGAUCUU (DNA:RNA)
# RNA: B1 RNA with U25G, U26G, A28U, A29C
# DNA 1: CAATCTGAATTCCGGTCTCCC
# DNA 2: TGGTGGCTACGACGGGATT
# B14: AGGUUAU (DNA:RNA)
# RNA: B1 RNA with U25A, U26G, A27G, A28U, A29U, U30A
# DNA 1: CAATCTGAATTCCGGTCTCCC
# DNA 2: TGGTGGCTACGACGGGATT
# B15: AACCUCC (DNA:RNA)
# RNA: B3 RNA with C25A, U27C, C29U, A31C
# DNA 1: CAATCTGAATTCCGGTCTCCC
# DNA 2: TGGTGGCTACGACGGGATT
# B16: AAGUAAG (DNA:RNA)
# RNA: B3 RNA with C25A, U27G, C28U, C29A, C30A, A31G
# DNA 1: CAATCTGAATTCCGGTCTCCC
# DNA 2: TGGTGGCTACGACGGGATT
# B17: UUUACAG (DNA:RNA)
# RNA: B1 RNA with A27U, A29C, U30A, U31G
# DNA 1: CAATCTGAATTCCGGTCTCCC
# DNA 2: TGGTGGCTACGACGGGATT
# B18: CGAUUGG (DNA:RNA)
# RNA: B3 RNA with A26G, U27A, C28U, C29U, C30G, A31G
# DNA 1: CAATCTGAATTCCGGTCTCCC
# DNA 2: TGGTGGCTACGACGGGATT
# B19: AUAAUUU (DNA:RNA)
# RNA: B1 RNA with U25A, A29U
# DNA 1: CAATCTGAATTCCGGTCTCCC
# DNA 2: TGGTGGCTACGACGGGATT
# B20: AAAAAUU (DNA:RNA)
# RNA: B1 RNA with U25A, U26A
# DNA 1: CAATCTGAATTCCGGTCTCCC
# DNA 2: TGGTGGCTACGACGGGATT
# B21: UCCGGGC (DNA:RNA)
# RNA: B1 RNA with U26C, A27C, A28G, A29G, U30G, U31C
# DNA 1: CAATCTGAATTCCGGTCTCCC
# DNA 2: TGGTGGCTACGACGGGATT
# B22: UUAGAGU (DNA:RNA)
# RNA: B1 RNA with A28G, U30G
# DNA 1: CAATCTGAATTCCGGTCTCCC
# DNA 2: TGGTGGCTACGACGGGATT
# B23: UUGGUGA (DNA:RNA)
# RNA: B1 RNA with A27G, A28G, A29U, U30G, U31A
# DNA 1: CAATCTGAATTCCGGTCTCCC
# DNA 2: TGGTGGCTACGACGGGATT
# B24: CGUGUCC (DNA:RNA)
# RNA: B3 RNA with A26G, C28G, C29U, A31C
# DNA 1: CAATCTGAATTCCGGTCTCCC
# DNA 2: TGGTGGCTACGACGGGATT
# B25: AUAAAGG (DNA:RNA)
# RNA: B1 RNA with U25A, U30G, U31G
# DNA 1: CAATCTGAATTCCGGTCTCCC
# DNA 2: TGGTGGCTACGACGGGATT
# B26: GGUUUGC (DNA:RNA)
# RNA: B3 RNA with C25G, A26G, C28U, C29U, C30G, A31C
# DNA 1: CAATCTGAATTCCGGTCTCCC
# DNA 2: TGGTGGCTACGACGGGATT
# B27: CUGCGCU (DNA:RNA)
# RNA: B3 RNA with A26U, U27G, C29G, A31U
# DNA 1: CAATCTGAATTCCGGTCTCCC
# DNA 2: TGGTGGCTACGACGGGATT
# B28: UGGCGAU (DNA:RNA)
# RNA: B1 RNA with U26G, A27G, A28C, A29G, U30A
# DNA 1: CAATCTGAATTCCGGTCTCCC
# DNA 2: TGGTGGCTACGACGGGATT
# B29: GUUUGGG (DNA:RNA)
# RNA: B3 RNA with C25G, A26U, C28U, C29G, C30G, A31G
# DNA 1: CAATCTGAATTCCGGTCTCCC
# DNA 2: TGGTGGCTACGACGGGATT
# B30: AAGGACU (DNA:RNA)
# RNA: B3 RNA with C25A, U27G, C28G, C29A, A31U
# DNA 1: CAATCTGAATTCCGGTCTCCC
# DNA 2: TGGTGGCTACGACGGGATT
# B31: GUACAGU (DNA:RNA)
# RNA: B1 RNA with U25G, A28C, U30G
# DNA 1: CAATCTGAATTCCGGTCTCCC
# DNA 2: TGGTGGCTACGACGGGATT
# Molecular target: T1, RBFOX1 RRM
# Test: EMSA; HiTS-Eq, 1 nM pool, 10 min; buffer printed only for the single-RNA assays: 10 mM Tris pH 7.5, 150 mM NaCl, 3.4 mM EDTA, 0.001% NP-40, 30 C
# Conditions: tags: His6 N-terminal (pET28a); label: 5' 32P
# In short: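 Purified RbFox RRM, wild type or mutant, was incubated for 10 min in 50 µL with 1 nM of a 5′-radiolabelled RNA pool carrying 7 randomized nucleotides, whose flanks were annealed to DNA oligonucleotides, over a series of increasing protein concentrations. Unbound RNA was resolved on 8% native PAGE, cut out, reverse-transcribed, barcoded by PCR and sequenced on an Illumina HiSeq 2500. Relative association constants were derived from changes in read counts for each RNA species versus the control reaction and normalised to the cognate motif.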
row,Binder,binding signal
1,B1,0.00371 KA relative to UGCAUGU
2,B2,0.00504 KA relative to UGCAUGU
3,B3,0.000386 KA relative to UGCAUGU
4,B4,0.0153 KA relative to UGCAUGU
5,B5,0.0153 KA relative to UGCAUGU
6,B6,0.00562 KA relative to UGCAUGU
7,B7,0.00573 KA relative to UGCAUGU
8,B8,0.0283 KA relative to UGCAUGU
9,B9,0.00302 KA relative to UGCAUGU
10,B10,0.00189 KA relative to UGCAUGU
11,B11,0.00697 KA relative to UGCAUGU
12,B12,0.0163 KA relative to UGCAUGU
13,B13,0.0133 KA relative to UGCAUGU
14,B14,0.00944 KA relative to UGCAUGU
15,B15,0.00309 KA relative to UGCAUGU
16,B16,0.00894 KA relative to UGCAUGU

row,Binder,binding signal
1,B17,0.00641 KA relative to UGCAUGU
2,B18,0.0173 KA relative to UGCAUGU
3,B19,0.00313 KA relative to UGCAUGU
4,B20,0.000504 KA relative to UGCAUGU
5,B21,0.00512 KA relative to UGCAUGU
6,B22,0.0129 KA relative to UGCAUGU
7,B23,0.0158 KA relative to UGCAUGU
8,B24,0.00858 KA relative to UGCAUGU
9,B25,0.00589 KA relative to UGCAUGU
10,B26,0.0289 KA relative to UGCAUGU
11,B27,0.015 KA relative to UGCAUGU
12,B28,0.0166 KA relative to UGCAUGU
13,B29,0.0128 KA relative to UGCAUGU
14,B30,0.00367 KA relative to UGCAUGU
15,B31,0.0103 KA relative to UGCAUGU

# From paper PMC9911399, “Two distinct binding modes provide the RNA-binding protein RbFox with extraordinary sequence specificity”
